From PubChem BioAssay AID1508623 (National Center for Advancing Translational Sciences (NCATS), 2021)
Among all 48,000 compounds or so, about 450 (0.94%) were called active. Another 19% or so got no clear call; they are omitted. Calls follow the shape of the dose curve; as a rule, active = well fitted inhibition curve with a large enough effect; inconclusive = small, poorly fitted or top-dose-only effect; inactive = no such curve, though single readings can be large or run the other way. This is one part of the list.

assay: Primary qHTS for Identification of Small Molecule Inhibitors of Huntingtin Promoter Activity; conditions: HEK293 HTT promoter firefly luciferase reporter (activity 0% = vehicle and -100% = no light), 24 h; series mostly up to 57.5 µM; activity change, negative = inhibition: at the top concentration; also: nearly all actives have a fitted effect of over 50% in size
How it was run: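 Firefly luciferase signal from promoter-reporter HEK293 cells was scaled between vehicle (0%) and zero RLU (-100%). Compounds were tested at final concentrations of up to 57.5 uM over 24 h at 37 degrees C. PTC124 at 50 uM final served as control inhibitor.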

Activity change, negative = inhibition, inactive:
CCOC(=O)c1c(NC(=O)c2cc3nc(-c4ccc(OC)cc4)cc(C(F)(F)F)n3n2)sc(C)c1C -0.413%, CCc1cccc(NC(=O)c2c(C)oc3ncnc(N4CCCCC4)c23)c1 -28.7%, COc1ccc(C(=O)c2oc3ccccc3c2NC(=O)c2nc(SC)ncc2Cl)cc1Cl 5.67%, NCCC(O)(P(=O)(O)O)P(=O)(O)O 13.7%, CCOC(=O)N1CCc2c(sc(NCc3cccs3)c2C(=O)Nc2cc(OC)ccc2OC)C1 -9.39%, CC(C)c1ccc(Nc2cc(C(=O)NCc3cccs3)c3ccccc3n2)cc1 -4.12%, CCOC(=O)c1nnn(C(CC)C(=O)Nc2c(C)cccc2C)c1C(=O)OCC (configuration not stated) -6.84%, CCN(CC)C(=O)CSc1nnc2[nH]c(=O)cc(C)n12 -7.05%, Cc1ccc(NC(=O)N2CCN(c3nnc(C)c4c(C)n(-c5ccccc5)nc34)CC2)c(Cl)c1 -7.22%, CCNc1nc(Oc2ccc(OCC(=O)OC)nn2)nc(N2CCOCC2)n1 0.311%, CCc1ccccc1NC(=O)CCCN1C(=O)COc2ccc(C)cc21 -19.4%, CCOc1ccc(-c2cccc(NS(=O)(=O)c3ccc(Cl)s3)c2)nn1 -8.47%, CCOc1ccc2nc(N3CCCC(C(=O)NCc4ccc(OC)cc4)C3)sc2c1 (configuration not stated) 15.4%, COc1ccc2cc(-c3cn4c(n3)sc3cc(F)ccc34)c(=O)oc2c1 -0.11%, COc1ccc(/C=C/c2onc(C)c2S(=O)(=O)N2CCC(C(=O)N3CCC(C)CC3)CC2)cc1 -28.1%, Cc1ccccc1CSc1nc(-c2ccccc2)nc2c1Cc1c(CO)cnc(C)c1O2 -15%, COc1cccc(C(=O)NCC(c2ccc(N(C)C)cc2)N2CCOCC2)c1OC (configuration not stated) 12.6%, CC(C)CCNC(=O)N1CCN(S(=O)(=O)c2ccc3c(ccn3C)c2)CC1 -32.4%, CCOC(=O)c1c(S(=O)(=O)N2CCCC(C(=O)Nc3cc(C)ccc3OC)C2)c(C)n(C)c1C (configuration not stated) -14.9%, CCCCNC(=O)CCn1c(=O)c2ccccc2n(Cc2cc(C)ccc2C)c1=O -15.7%, COc1cccc(C2=NN(C(C)=O)C(c3cn(-c4ccccc4)nc3-c3cccs3)C2)c1 (configuration not stated) -18.1%, CC1CCN(S(=O)(=O)c2ccc3c(c2)N(CC(=O)N2CCN(c4ccc(Cl)cc4)CC2)C(=O)CO3)CC1 -24.4%, CC(C[N+](C)(C)C)OC(N)=O (configuration not stated), Cc1ccc(C)c(N2CCN(C(=O)c3cc(S(=O)(=O)N4CCCCC4)cn3C)CC2)c1 -30.3%, COc1ccc2[nH]cc(CCNC(=O)Nc3ccc(F)cc3)c2c1 -15.2%, CCCC(=O)Nc1nnc(SCc2cc(=O)c3cc(C)ccc3[nH]2)s1 -22.4%, O=C(c1ccc(CSc2nc3ccncc3n2Cc2ccccc2F)cc1)N1CCCCCC1 -29.7%, O=C(Cn1ncc2c3ccccc3n(Cc3ccc(Cl)cc3)c2c1=O)NCCCc1ccccc1 0.388%, CC(C)c1ccc(Nc2cc(C(=O)NCCc3ccccc3)c3ccccc3n2)cc1 -7.47%, CCc1ccccc1N1CC(c2nc3ccccc3n2CC(C)C)CC1=O (configuration not stated) -17.9%, Cc1ccc(C)c(S(=O)(=O)c2nnn3c2nc(N2CCCC2)c2sccc23)c1 -19.6%, CCCCN(CC)CCCn1cnc2c([nH]c3ccc(Cl)cc32)c1=O 1.35%, CCC(=O)Nc1ccccc1-c1nc2ccccc2n(C(CC)C(=O)Nc2cccc(C(C)=O)c2)c1=O (configuration not stated) -3.82%, CC(C)(C)C1CCc2nc(NC(=O)COc3ccc(F)cc3)sc2C1 (configuration not stated) -26.3%, CC(=O)Nc1ccc(-n2cc3c(c2-c2ccc(C)cc2)c(=O)n(C)c(=O)n3C)cc1 -0.593%, Cc1oc(-c2ccc(C(=O)Nc3ccc(F)cc3F)cc2)nc1COc1ccccc1 -15.9%, Cn1c(SCC(=O)Nc2ccc(F)cc2)nc2c([nH]c3ccccc32)c1=O -15.4%, CN(C)C(=O)c1ccc2c(c1)N(CC(=O)NCc1ccc(F)cc1)C(=O)C1CCCCN21 (configuration not stated) -3.83%, COc1cccc(-c2cc(C(=O)NCc3ccccc3)[nH]n2)c1 43.6%, Cc1ccc(NC(=O)C(Cc2ccccc2)NS(=O)(=O)c2ccc3c(c2)c(=O)n(C)c(=O)n3C)cc1 (configuration not stated) -18%, CCN(C(=O)c1cc(S(=O)(=O)N2CCOCC2)cn1C)c1ccc(OC)cc1 11.7%, Cc1ccc(CN2C(=O)c3ccccc3S(=O)(=O)c3ccc(C(=O)OCC4CCCO4)cc32)cc1 (configuration not stated) -0.412%, CCOc1nc(NC(=O)NS(=O)(=O)Oc2ccc(Cl)cc2)nc(-c2ccccc2)n1 41.6%, Cc1cccn2c(=O)c3cc(C(=O)NCCc4ccc(S(N)(=O)=O)cc4)n(C)c3nc12 -28.6%, COc1ccc(OC)c(C2C(C(N)=O)=C(C)Nc3nc(-c4cccc(Cl)c4)nn32)c1 (configuration not stated) -10.6%, COc1cc(OC)cc(-c2nnc(SCC(=O)N3CCC(C)CC3)o2)c1 -23.7%, COc1ccc(CCNC(=O)CCn2c(=O)c3ccccc3n(CC(=O)Nc3cccc(C)c3)c2=O)cc1OC -7.61%, CC(=O)c1ccc(NC(=O)Cn2c(-n3nc(C)cc3C)nc(C)cc2=O)cc1 -20.7%, Cc1ccc2c(c1)cc1c(=O)n(CC(=O)NCc3ccco3)nc(C)n12 8.76%, O=C(c1ccc(CSc2nc3ccncc3n2Cc2ccccc2F)cc1)N1CCCCC1 -2.73%, CCOc1ccccc1Nc1sc(C(=O)c2ccc(Cl)cc2)c(N)c1C#N -21.7%, COc1ccc2c(c1)C(=O)N(CCc1ccc(S(=O)(=O)NC(=O)NC3CCCCC3)cc1)C(=O)C2(C)C 5.76%, O=C(NCc1ccc(F)cc1)c1cccc(N2CCCS2(=O)=O)c1 -28.7%, O=C(NCCc1ccccc1)c1cc(-c2ccccc2)nc2n[nH]c(-c3ccccc3)c12 16.6%, Cc1ccccc1NC(=O)Cn1c(=O)n(Cc2ccco2)c(=O)c2cccnc21 -0.81%, CC(C)c1ccc(NC(=O)CNC(=O)Cn2ccc3ccccc3c2=O)cc1 -11%, CCc1ccc2c(c1)c(=O)c(C(=O)c1ccc(C)cc1)cn2CC(=O)Nc1ccc2c(c1)OCCO2 -16.9%, Cc1ccc(Cl)cc1NC(=O)C1CCCN(S(=O)(=O)c2c(C)noc2/C=C/N(C)C)C1 (configuration not stated) -36.3%, COC(=O)c1c(NC(=O)CCCOc2ccccc2)sc2c1CCC(C)C2 (configuration not stated) 1.51%, CCC(=O)N1CCc2cc(S(=O)(=O)CCC(=O)N(C)c3ccc(OC)cc3)ccc21 8.3%, Cc1ccc2nc(/C(C#N)=C/c3ccc(-c4ccc(F)cc4F)o3)[nH]c2c1 9.79%, CSc1cccc(NC(=O)c2ccc3c(c2)c(C)c(C)n3Cc2ccc(F)cc2)c1 -24.1%, COc1ccc(CCCc2nnc(SCC(=O)Nc3ccc(C)c(C)c3)o2)cc1 -20.9%, CCc1ccc(S(=O)(=O)c2cn(C)c3cc(N4CCN(CC)CC4)c(F)cc3c2=O)cc1 -10.6%, Cc1cc(C)c2c(CC(=O)Nc3nnc(CC(C)C)s3)coc2c1 2.31%, CN(C)CCN(Cc1ccc(Cl)cc1)c1ccccn1 4.51%, Cc1ccc(CN2CCC(CNC(=O)Nc3c(C)cccc3C)C2)cc1 (configuration not stated) -16.2%, COc1ccccc1-c1c(C)nn2c(C(F)(F)F)cc(-c3ccccc3)nc12 -13.8%, CCC(=O)Nc1cccc(-c2cn3c(C)csc3n2)c1 20.4%, O=C(CCC1N=C2c3ccccc3N=C(SCc3cccc(Cl)c3)N2C1=O)NCc1cccs1 (configuration not stated) -3.13%, COc1cccc(C(=O)N(Cc2cccc(Cl)c2)Cc2ccco2)c1 -29.7%, CC(C)(C)c1ccc(OCC(=O)Nc2c(C(=O)c3ccc(F)cc3)oc3ccccc23)cc1 8.1%, NS(=O)(=O)Cc1noc2ccccc12 13.2%, CCC(C)n1c(=N)c(S(=O)(=O)c2ccccc2)cc2c(=O)n3ccccc3nc21 (configuration not stated) -11.1%, CCOc1ccc(S(=O)(=O)N(CC(=O)NCCSCc2ccccc2)c2ccccc2)cc1 -14.9%, CCOc1ccccc1NC(=O)N1CCN(Cc2cc(=O)n3nc(-c4ccc(C)cc4)sc3n2)CC1 -12.8%, COc1cc(Cl)c(C)cc1NC(=O)NC1COc2ccccc2C1 (configuration not stated) -13.8%, CCCNC(=O)Cn1c(=O)cc(C)c2c(C)nn(-c3cccc(F)c3)c21 -8.06%, CCc1ccc(-c2ccc3nnc(SCC(=O)Nc4cccc(C(C)=O)c4)n3n2)cc1 -20.4%, Cc1onc(-c2ccccc2)c1C(=O)Cl 2.07%, COc1ccc(NC(=O)c2oc3ccccc3c2NC(=O)c2cc(OC)c(OC)c(OC)c2)cc1 -10.3%, COc1ccc(CCNC(=O)CN2C(=O)COc3ccccc32)cc1OC -17.8%, COc1cccc(CNC(=O)c2ccc(CS(=O)c3ccccc3)o2)c1 (configuration not stated) -10.3%, Cc1cccc(Oc2nc3c(c(=O)n(C)c(=O)n3C)n2C)c1C -5.35% [at 11.5 µM], CCc1ccccc1NC(=O)C(CCSC)NS(=O)(=O)c1ccc2c(c1)oc(=O)n2C (configuration not stated) -25.5%, CCOC(=O)N1CCN(C(=O)c2cnn(-c3cccc(F)c3)c2-n2cccc2)CC1 -16%, Cc1ccccc1-c1nn2c(=O)cc(CN3CCN(C(=O)c4ccccc4Br)CC3)nc2s1 -0.895%, N#Cc1c(-c2ccccc2)cc(-c2ccccc2)nc1SCC(=O)Nc1ccc(Cl)cc1 -7.12%, CC1CCN(S(=O)(=O)c2ccc3nc(N4CCN(c5ccccc5)CC4)ccc3c2)CC1 6.98%, Oc1c(C(c2ccc(Cl)cc2)N2CCOCC2)sc2nc(-c3ccco3)nn12 (configuration not stated) 20.5%, Fc1cccc(CSc2nc(NCCc3ccccc3)c3ccccc3n2)c1 -8.98%, COc1ccccc1OCC(=O)Nc1cc(-c2ccc(C)cc2)no1 31.5%, Cn1c(=O)c(-c2c(Cl)cccc2Cl)cc2cnc(Nc3cccc(C(=O)O)c3)nc21 20.4%, Cc1ccc(CSc2ncccc2C(=O)O)cc1 35.1%, COc1cccc(-c2nc(CS(=O)(=O)CC(=O)NCCCc3ccccc3)c(C)o2)c1 -26.1%, Cc1ccc(S(=O)(=O)N2CCCc3cc(NC(=O)c4ccc(C(C)(C)C)cc4)ccc32)cc1 -23.8%, Cc1nc(-c2ccc(F)cc2)sc1CCNC(=O)C(=O)Nc1ccc2c(c1)OCO2 -25.5%
